Each structure is given as a SMILES string. Screen size: about 150,000 compounds; about 540 (0.36%) showed an effect of 50% or more. This is one part of the list.

The assay concerns Plasmodium falciparum. Briefly: Primary screen in NF54 nanoGlo assay, in single point, at 2uM, 72h; a lower Z score goes with more inhibition. The following applies: timepoint 72 hour. It is filed as functional, Erythrocyte.
A word on the % Inhibition: it is the change of the read-out against control, counted positive when it falls. In the case of `O=C1c2ccccc2C(=O)N1CN1CCOCC1`, the “% Inhibition” value was 3% and the Z score is -0.46.

As for `CC[C@H]1CN(C(=O)c2c(C)ncn2C)CCN1C`, the “% Inhibition” value was -2% and the Z score was 0.27.

`CCN(Cc1c(C)nn(C)c1Cl)C1CCCCC1`: the “% Inhibition” value was -6% and the Z score is reported as 0.8.

Turning to `Cc1n[nH]c(=O)c2cc(S(=O)(=O)Nc3ccc(Cl)cc3)cn12`, the “% Inhibition” value was -5% and the Z score turned out to be 0.6.

With `CC(C)(C)OC(=O)NCc1cccc(-n2ccnc2)c1`, the “% Inhibition” value is -6% and the Z score is 0.65.

For the compound `CCC(C)N(CC(=O)N(Cc1ccco1)CC1CCCO1)S(=O)(=O)c1ccccc1` (centres undefined), the “% Inhibition” value was -7% and the Z score is reported as 1.

Take `CCc1ccc2c(c1)N=C(c1ccc(F)cc1)N=C(c1ccncc1)N2`: the “% Inhibition” value is reported as -9% and the Z score is 1.03.

Take `COc1ccc(S(=O)(=O)N2CCOCC2)cc1NC(=O)Cc1ccc(Cl)c(Cl)c1`: the “% Inhibition” value is -10% and the Z score turned out to be 1.55.

On to `O=C(c1cc(F)ccc1F)N1CCN(CCO)[C@@H]2CS(=O)(=O)C[C@@H]21`, for which the “% Inhibition” value is recorded as 4% and the Z score is -0.64.

On to `O=C(NC1CCCCCC1)c1cnn2c(-c3ccc(Cl)cc3)ccnc12`, for which the “% Inhibition” value amounted to 33% and the Z score is -3.73.

Consider `CC(=O)NC[C@@H]1CN(C(=O)c2ccc3cc(C)ccc3n2)C[C@H]1c1cncn1C`, for which the “% Inhibition” value is on record as -12% and the Z score worked out at 1.81.

Consider `COc1cc(C2CN(C(=O)c3ccc(Cl)cc3)CC2C(=O)N2CCCC2)cc(OC)c1OC` (centres undefined), for which the “% Inhibition” value was determined as 3% and the Z score was -0.51.

With `Cc1ccc2nc(C(F)(F)F)n(N3C(=O)C4CC4C3=O)c(=O)c2c1` (centres undefined), the “% Inhibition” value is -5% and the Z score turned out to be 0.59.

For `CC(C)OCCN1CCC(c2cnn(C)c2)CC1`, the “% Inhibition” value is recorded as -6% and the Z score is 0.86.

On to `O=C(N1CCNCC1)N(c1ccccc1)c1ccccc1`, for which the “% Inhibition” value is -11% and the Z score was 1.22.

For the compound `COC(=O)[C@@H](NC(=O)c1ccc(C)nc1)C(C)(C)C`, the “% Inhibition” value was -8% and the Z score is reported as 1.21.

For `Fc1ccccc1CNCc1cc2ccc(Cl)cc2nc1N1CCOCC1`, the “% Inhibition” value is recorded as -11% and the Z score was found to be 1.28.

Turning to `Cc1ccccc1C(=O)N(Cc1ccc(F)cc1)c1cccc(CC(=O)N2CCCC2)c1`, the “% Inhibition” value turned out to be 2% and the Z score is reported as -0.27.

For the compound `Cc1nc(O)c2c(n1)CN(Cc1ccc3cn[nH]c3c1)C2`, the “% Inhibition” value is reported as -1% and the Z score is on record as 0.26.

For `CCN(CC)Cc1c(N)c(C#N)c2ccccn12`, the “% Inhibition” value is -32% and the Z score is on record as 3.74.

As for `Cc1ccc(C(=O)N2CC[C@H](n3c(C)cnc3C3CC3)C2)cn1`, the “% Inhibition” value is listed as -12% and the Z score is given as 1.55.

In the case of `COc1ccc(N2C[C@@H](NC(=O)c3cnc(N(C)C)nc3C)CC2=O)cc1`, the “% Inhibition” value stood at 5% and the Z score is listed as -0.86.

Consider `Cc1cnc(Cn2ccnc2[C@H]2CCOC(C)(C)C2)cn1`, for which the “% Inhibition” value is recorded as -3% and the Z score was determined as 0.53.

As to `O=C(C1CCOCC1)N1CCC[C@H]1c1nc(C2CCOCC2)no1`, the “% Inhibition” value is -16% and the Z score was determined as 2.11.

With `Cc1ccnc(O)c1C(=O)N1CCc2c(CN3CCCC3)cccc21`, the “% Inhibition” value is listed as -5% and the Z score is 0.65.

For `O=C(O)c1ccc(CN2CC[C@H](c3ccccc3)[C@H](CO)C2)cc1Cl`, the “% Inhibition” value is on record as -11% and the Z score stood at 1.65.

For `Cc1ccc2nc(COc3ccc(C(=O)NCc4ccco4)cc3)cn2c1`, the “% Inhibition” value was -15% and the Z score is on record as 1.24.

`CC1OCCC1C(=O)N(Cc1ccccn1)c1ccc(F)cc1F` (centres undefined): the “% Inhibition” value is -6% and the Z score is recorded as 0.72.

`O=C(C[C@H](CCc1ccccc1)c1c[nH]c2ccccc12)NCc1ccccc1`: the “% Inhibition” value is 0% and the Z score is -0.03.

As for `COc1ccc(CN(C(=O)c2oc3ccccc3c2C)[C@H]2CCS(=O)(=O)C2)cc1OC`, the “% Inhibition” value was -5% and the Z score is 0.47.

For `CCc1nc(Cn2nc3ccccn3c2=O)no1`, the “% Inhibition” value is listed as -13% and the Z score was 1.64.

Consider `CC(=O)N1CC[C@H]2[C@H](CCCN2Cc2ccccc2-c2ccco2)C1`, for which the “% Inhibition” value is 2% and the Z score is -0.29.

For the compound `Cc1cccc(C[C@H](C)Nc2nc(C)cnc2C)n1`, the “% Inhibition” value was 1% and the Z score is given as -0.08.

Regarding `COc1ccc(C)cc1NC(=O)N1CCC2(CC1)CC(=O)N(CC(C)C)C2`, the “% Inhibition” value is recorded as 11% and the Z score was -1.61.

For the compound `Cn1cc([C@]2(C)NC(=O)N(Cc3ccsc3)C2=O)cn1`, the “% Inhibition” value is on record as -13% and the Z score is reported as 1.75.

For `CCS(=O)(=O)c1c(S(=O)(=O)CC)c2c3ccccc3ccn2c1C(=O)c1ccc(Cl)cc1`, the “% Inhibition” value is on record as -4% and the Z score is 0.57.

Consider `Cc1cc([C@]2(C)NC(=O)N(Cc3cccc(C(N)=O)c3)C2=O)c(C)o1`, for which the “% Inhibition” value is listed as -5% and the Z score is on record as 0.83.

`Cc1c(Cl)cc(C(=O)N(C)C[C@H]2COCCO2)cc1Cl`: the “% Inhibition” value was determined as 9% and the Z score is -1.63.

Consider `Cn1cccc1C(=O)NC1CC1c1ccc(F)cc1F` (centres undefined), for which the “% Inhibition” value is reported as -3% and the Z score is recorded as 0.53.

Turning to `Cc1ccc(OCCOCCN(C)C)cc1`, the “% Inhibition” value was -2% and the Z score is on record as 0.26.

In the case of `O=C(c1csc(C(F)(F)F)c1)N1CCn2c(n[nH]c2=O)C1`, the “% Inhibition” value is reported as -2% and the Z score is recorded as 0.28.

As to `O=C(c1ccc(Cl)cc1)N(CC(=O)N1c2ccccc2-n2cccc2[C@H]1c1cccc(Cl)c1)C1CC1`, the “% Inhibition” value was -6% and the Z score is 1.2.

These data come from ChEMBL document CHEMBL4888484, “Replenishing the malaria drug discovery pipeline: Screening and hit evaluation of the MMV Hit Generation Library 1 (HGL1) against asexual blood stage Plasmodium falciparum ,using a nano luciferase reporter read-out” (2022).
